Reference: PubChem BioAssay AID504339 (National Center for Advancing Translational Sciences (NCATS), 2011)
Out of some 390,000 compounds screened, about 17,000 (4.4%) were called active. Inconclusive results, whose numbers are uncertain, are shown with a selection of clear calls. The call rests on the fitted dose curve; in most records, active means well fitted inhibition curve with a large enough effect; inconclusive means small, poorly fitted or top-dose-only effect; inactive means no such curve, though single readings can be large or run the other way. Where the call is inconclusive, the potency comes from a doubtful curve fit.

The molecules below were run against Lysine-specific demethylase 4A (Homo sapiens) (UniProt O75164) (assay: qHTS Assay for Inhibitors of JMJD2A-Tudor Domain). Conditions: AlphaScreen JMJD2A-Tudor / H3K4me3 peptide binding; activity change, negative = inhibition: at 114 µM (top of the series).
UniProt O75164, sequence (O75164 whole entry, looked up, the tested form may be a part): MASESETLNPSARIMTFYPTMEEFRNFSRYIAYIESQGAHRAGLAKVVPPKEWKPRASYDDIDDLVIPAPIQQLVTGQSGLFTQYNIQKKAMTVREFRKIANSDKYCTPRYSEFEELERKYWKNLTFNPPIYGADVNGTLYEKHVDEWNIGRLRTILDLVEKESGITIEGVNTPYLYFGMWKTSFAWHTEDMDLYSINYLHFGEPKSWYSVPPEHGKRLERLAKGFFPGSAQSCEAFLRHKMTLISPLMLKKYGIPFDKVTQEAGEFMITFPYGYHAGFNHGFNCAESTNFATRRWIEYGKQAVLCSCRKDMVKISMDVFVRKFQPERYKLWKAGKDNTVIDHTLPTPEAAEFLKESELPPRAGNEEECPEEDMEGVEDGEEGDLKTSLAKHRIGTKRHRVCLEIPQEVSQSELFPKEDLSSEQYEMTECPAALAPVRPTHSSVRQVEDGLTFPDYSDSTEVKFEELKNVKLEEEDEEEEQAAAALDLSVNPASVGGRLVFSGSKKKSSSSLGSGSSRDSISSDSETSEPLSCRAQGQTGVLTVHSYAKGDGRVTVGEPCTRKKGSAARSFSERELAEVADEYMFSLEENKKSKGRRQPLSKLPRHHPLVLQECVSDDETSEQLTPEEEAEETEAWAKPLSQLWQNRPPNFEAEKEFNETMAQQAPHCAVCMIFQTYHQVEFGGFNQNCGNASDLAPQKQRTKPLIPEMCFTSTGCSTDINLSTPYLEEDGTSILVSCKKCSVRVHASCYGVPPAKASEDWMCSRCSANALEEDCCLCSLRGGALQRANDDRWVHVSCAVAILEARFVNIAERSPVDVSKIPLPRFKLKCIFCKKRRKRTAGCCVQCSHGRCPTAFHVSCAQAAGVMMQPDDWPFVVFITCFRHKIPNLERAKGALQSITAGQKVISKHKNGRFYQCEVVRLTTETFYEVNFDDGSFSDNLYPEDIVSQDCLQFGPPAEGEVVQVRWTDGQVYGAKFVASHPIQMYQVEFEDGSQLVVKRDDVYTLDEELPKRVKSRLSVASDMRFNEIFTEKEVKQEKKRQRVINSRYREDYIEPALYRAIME
Further: nearly all actives have a fitted effect of over 50% in size.
On the % scale 0 is the no-effect control and ±100 the full control effect; potency means the concentration at half of the fitted maximal effect; tags describe the fitted curve by direction and shape.

SMILES	Potency	activity change, negative = inhibition
CN(C)P(=NC(=S)c1cccn1C)(N(C)C)N(C)C	active: 39.8 µM	
CCOc1cc(-c2ccc(N)c(OCC)c2)ccc1N	inconclusive: 3.55 µM [inhibitor, single point]	
C/C(=N\NC(=S)Nc1ccccc1)c1c(O)n(C)c(=O)n(C)c1=O	active: 17.8 µM	
COC(=O)C1=C(c2ccccc2OCc2ccccc2)C[C@@H]2CC[C@H]1N2C(=O)NCc1ccc(N(C)C)cc1	active: 20 µM	
O=C(OCC(=O)N1CCOCC1)c1ccc[nH]c1=O	active: 17.8 µM	
CC[C@H]1CC2CN3CCc4c([nH]c5ccccc45)C(C(=O)OC)(C2)C13 (some centres not stated)	inconclusive: 50.1 µM [inhibitor, partial curve]	
CSc1nnc(C2CCNCC2)n1C	inconclusive: 89.1 µM [inhibitor, single point]	
COCc1cc(C)c(C#N)c(=S)[nH]1	active: 7.94 µM	
CCCCn1c(O)c(/C=C2/C=CC=N2)c(=O)[nH]c1=O		inactive: -3.45%
CN1C(=O)C(=Cc2ccc(N3CCOCC3)o2)C(=O)N(C)C1=S		inactive: -19.2%
On1ccccc1=S	active: 3.55 µM	
Cc1cc(C)c2c(c1)NP(=S)(c1ccccc1)N2 (configuration not stated)	inconclusive: 39.8 µM [inhibitor, full curve]	
Cc1ccc(-n2sc3ccccc3c2=O)cc1	active: 7.08 µM	
O=[N+]([O-])c1ccc(N2CCCCCC2)c2nonc12		inactive: -16.4%
Cc1cccc(CN2CC=C(c3noc(CCC(=O)Nc4ccc(C)c(F)c4)n3)CC2)c1	inconclusive: 63.1 µM [inhibitor, partial curve, poor fit]	
CCC(C)N1C(=O)/C(=C\c2ccc(N3CCCCCC3)cc2)C(=O)NC1=S (configuration not stated)	inconclusive: 39.8 µM [inhibitor, partial curve]	
Cc1cc(O)c2c(c1)C(=O)C13C(=C2O)C(=O)[C@H]2[C@@H](O)[C@@H]1[C@H]1[C@H](O)[C@@H]3C(=O)C3=C(O)c4c(O)cc(C)cc4C(=O)C312 (some centres not stated)	inconclusive: 5.01 µM [inhibitor, full curve]	
C[n+]1c(-c2ccccc2)cc(CCCCc2cc(-c3ccccc3)[n+](C)c(-c3ccccc3)c2)cc1-c1ccccc1	inconclusive: 56.2 µM [inhibitor, partial curve]	
Cc1ccc(NC(=O)Nc2cc3c(cc2N2CCCCC2)n(C)c(=O)n3C)cc1Cl	inconclusive: 10 µM [inhibitor, full curve]	
COc1cccc(N2C(=O)NC(=O)/C(=C\c3ccc([N+](=O)[O-])s3)C2=O)c1	active: 35.5 µM	
COC(=O)Cc1cc(=O)n(-c2ccccc2)[nH]1	inconclusive: 89.1 µM [inhibitor, single point]	
Cc1ccc(CSCCNS(=O)(=O)c2ccc([N+](=O)[O-])cc2)cc1	inconclusive: 56.2 µM [inhibitor, partial curve]	
CCOc1cc2c(cc1OCC)-n1cccc1C(c1ccc(OC)cc1)NC2 (configuration not stated)	inconclusive: 56.2 µM [inhibitor, partial curve]	
COC(=O)C1=C(c2cccc(OCc3ccccc3)c2)C[C@@H]2CC[C@H]1N2C(=O)NNCc1ccccc1	inconclusive: 56.2 µM [inhibitor, partial curve]	

SMILES	Potency	activity change, negative = inhibition
N#CC(C#N)=C(C#N)c1ccc(Nc2ccccc2)cc1	inconclusive: 89.1 µM [inhibitor, single point]	
COc1ccccc1N1CCN(Cc2ccccc2)CC1	active: 20 µM	
Cc1cccc(-n2nc(C)c(C(=O)N3CCN(c4ccccc4)CC3)c2-n2cccc2)c1	inconclusive: 56.2 µM [inhibitor, partial curve, poor fit]	
CCN1C(=O)NC(=O)/C(=C/c2cc(C)n(-c3sc(C)c(C)c3C#N)c2C)C1=O	inconclusive: 70.8 µM [inhibitor, single point]	
Cc1ccc(CN(C)CCc2ccccn2)cc1	active: 3.16 µM	
CC1(C)C2CC=C(CN3CCOCC3)C1C2 (configuration not stated)		inactive: -23.4%
CCCCc1ccc(NC(=O)c2ccc3c(c2)CCN3S(=O)(=O)CC)cc1	inconclusive: 56.2 µM [inhibitor, partial curve]	
Cc1cc(N(CCCl)CCCl)ccc1/C=N/N=C(\N)c1cnccn1	active: 14.1 µM	
Cc1ccc(S(=O)(=O)NP(=O)(Oc2ccccc2)Oc2ccccc2)cc1	inconclusive: 89.1 µM [inhibitor, single point]	
O=C1NC(=O)C(=Cc2ccc(OCCOc3ccc([N+](=O)[O-])cc3)cc2)C(=O)N1	active: 50.1 µM	
CC(=O)Nc1ccc(CC(=O)N2CCN(Cc3ccccc3)CC2)cc1		inactive: -9.12%
Nc1ccc(Oc2cccc(Oc3ccc(N)cc3)c2)cc1	inconclusive: 79.4 µM [inhibitor, single point]	
Cc1nonc1OCCNCCNc1ccc([N+](=O)[O-])c2cccnc12	inconclusive: 79.4 µM [inhibitor, partial curve]	
Nc1c2c(nc3sc4c(c13)CCCC4)CCCCC2	active: 79.4 µM	
O=C1OC(=O)C2C1[C@@H]1CC[C@H]2O1 (some centres not stated)	inconclusive: 89.1 µM [inhibitor, single point]	
Cc1cccc(CNCCc2c[nH]c3ccccc23)c1	inconclusive: 56.2 µM [inhibitor, partial curve]	
COC(=O)C1CN(C#N)N(c2ccc(Cl)cc2)C12c1ccccc1-c1ccccc12 (configuration not stated)	inconclusive: 3.98 µM [inhibitor, full curve, poor fit]	
CN1CCc2c(c(N3CCCCC3)nc3n[nH]c(N)c23)C1		inactive: -8.44%
COc1cccc(-n2c(CNC(=O)OC(C)(C)C)n[nH]c2=S)c1	active: 10 µM	
O=C(O)Cn1cc(/C=C2\C(=O)NC(=O)N(Cc3ccco3)C2=O)c2ccccc21	active: 79.4 µM	
C=CCn1c(O)c(C=Nc2ccc(Cc3ccncc3)cc2)c(=O)[nH]c1=S	inconclusive: 100 µM [inhibitor, single point]	
CCOC(=O)c1cnc2c(ccc3ccccc32)c1Nc1ccc(N(C)C)cc1	active: 11.2 µM	
S=P(c1ccccc1)(c1ccccc1)c1cnc2ccccn12	inconclusive: 79.4 µM [inhibitor, partial curve]	
